# In all, about 45,000 compounds went through this assay and about 200 (0.44%) were called active. Inconclusive results (about 7%) are left out. Calls follow the shape of the dose curve; as a rule, active = well fitted activation curve with a large enough effect; inconclusive = small, poorly fitted or top-dose-only effect; inactive = no such curve, though single readings can be large or run the other way. Some of the results follow.
# Test: qHTS of TDP-43 Inhibitors: NCGC Sytravon Library Screen; also: 0% is about no effect; nearly all actives have a fitted effect of over 55% in size
# Details: yeast TDP-43 toxicity rescue, BacTiter-Glo growth, 24 h; series mostly up to 46.1 µM; growth rescue (activation): at the top concentration
# Summary of the method: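 TDP-43-expressing yeast, pregrown in raffinose, seeded at OD600 0.02 in galactose medium with compound for 24 hr at 30 deg C. Growth read by BacTiter-Glo luminescence, so rescue of toxicity appears as activation.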
row,SMILES,growth rescue (activation)
1,CCC(=O)NC(c1ccccc1Cl)c1c(O)ccc2ccccc12 (centres undefined),inactive: -5.07%
2,Cc1cc(=O)n2nc(N3CCCC(C(=O)NCCC4=CCCCC4)C3)sc2n1 (centres undefined),inactive: 23.4%
3,COCCN1CCN(C(=O)c2cc(COc3ccc(F)c(F)c3)on2)CC1,inactive: 16.6%
4,Cc1ccc(Nc2n[nH]c(C)c2[N+](=O)[O-])cc1C,inactive: 25.7%
5,CNC(=O)NCCN1CCCC1=O,inactive: -28%
6,Nc1ccc(-c2nc3c(Cl)c(N)ccc3[nH]2)cc1,inactive: 5.02%
7,NS(=O)(=O)c1ccc(CCNC(=S)Nc2ccc(F)cc2)cc1,inactive: 10.5%
8,COc1cc(OC)c(S(=O)(=O)N2CCCCC2)cc1S(=O)(=O)N1CCCCC1,inactive: 10.9%
9,Cc1ccc(S(=O)(=O)N(C)c2c(C)ccc(S(=O)(=O)N3CCN(C)CC3)c2C)cc1,inactive: 14.4%
10,O=C(c1cc(-c2ccc(O)cc2)on1)N1CCCC1,inactive: 9.01%
11,Cc1cccc(C(=O)Nc2cc(S(=O)(=O)N3CCOCC3)ccc2N2CCCC2)c1,inactive: 13.1%
12,CC(=O)c1ccc(S(=O)(=O)N2CCN(CC#N)CC2)cc1,inactive: 13%
13,CCOC(=O)c1ccccc1NC(=O)Cc1ccc(S(=O)(=O)N2CCCC2)s1,inactive: 6.75%
14,CC1=C(C(=O)OCCOc2ccccc2)C(c2ccsc2)NC(=O)N1C (centres undefined),inactive: 19%
15,O=C(O)Cn1cc(C(=O)C(F)(F)F)c2ccccc21,inactive: 6.7%
16,CN(C)/N=C1\CCS(=O)(=O)c2sccc21,inactive: -7.41%
17,CC1(C)CC(=O)C=C(NCCN2CCN(C(=S)NC3CCCCC3)CC2)C1,inactive: -7.26%
18,O=C(NCCN1CCCCC1)/C(=C/c1ccco1)NC(=O)c1ccccc1,inactive: -15.2%
19,CCOc1cc(/C=C2\SC(N3CCCC(C)C3)=NC2=O)ccc1O (centres undefined),inactive: 8.02%
20,O=C(CN1CCOCC1)Nc1ccc(NC(=O)c2ccccc2F)cc1,inactive: 12.8%
21,NC(Cc1c[nH]c2ccc(OCc3ccccc3)cc12)C(=O)O (centres undefined),inactive: -1.34%
22,O=C(COC(=O)c1cc(S(=O)(=O)N2CCOCC2)ccc1F)NCc1ccc2c(c1)OCO2,inactive: 6.58%

row,SMILES,growth rescue (activation)
1,COCCNC(=O)C12CC3CC(C1)CC(c1ccccc1)(C3)C2,inactive: -16.7%
2,CCNC(=O)N1CCC(n2nccc2NC(=O)CCCc2ccccc2)CC1,inactive: 10.7%
3,COc1ccc(OCCn2cc(/C=C(\C#N)C(=O)NCc3ccco3)c3ccccc32)cc1,inactive: 5.1%
4,C/C(=N\N1CCN(c2ccccc2)CC1)c1cccs1,inactive: 9.2%
5,CCNC(=S)N(CCc1c(C)[nH]c2ccc(Cl)cc12)Cc1cccnc1,inactive: 14.7%
6,COCCNC(=O)C1(C)CCCN(C(=O)c2cccc(Cl)c2)C1 (centres undefined),inactive: -17.7%
7,COc1ccccc1CCC(=O)NNC(=O)c1cccs1,inactive: 10.7%
8,Cc1ccc(NC(=O)[C@@H]2CCCN2S(=O)(=O)c2ccccc2F)cc1,inactive: 28%
9,COc1ccc(-n2ncc(C(C)NS(=O)(=O)c3ccc(C(C)=O)cc3)c2C)cc1 (centres undefined),inactive: 18.7%
10,O=C(CCNC(=O)c1ccco1)Nc1ccc(OC(F)F)c(Cl)c1,inactive: -18.5%
11,COc1cc(/C=C2\SC(=S)N(NS(=O)(=O)c3ccccc3)C2=O)cc(OC)c1OC,inactive: 16.6%
12,CC(C)c1ccc(NC(=O)C[n+]2ccn(C3=C([O-])c4ccccc4C3=O)c2)cc1,inactive: 7.25%
13,COCCc1nc2ccc(C(=O)N(C)Cc3cccc(-n4nc(C)cc4C)c3)cc2o1,inactive: 19.6%
14,CCOC(=O)C(CC)n1cnc2sc3c(c2c1=O)CCC3 (centres undefined),inactive: 5.71%
15,CCc1ccc(S(=O)(=O)NC2CC(C)(C)NC(C)(C)C2)cc1,inactive: -3.19%
16,O=S(=O)(NCCc1ccccc1)c1cccs1,inactive: 2.59%
17,CCOc1ccc(-c2cc(C(=O)Nc3ccc(F)cc3)[nH]n2)c(C)c1,inactive: 12.4%
18,O=C(O)CCSc1nnc(COc2cccc3ccccc23)n1-c1cccc(Cl)c1,inactive: 23%
19,O=C(CNC(=O)c1ccc(Cl)cc1)N/N=C/C=C/c1ccccc1,inactive: 11%
20,CC(C)(C)NC(=O)CN(C(=O)c1ccc(Cl)nc1)c1cccc2ccccc12,inactive: 4.47%
21,Cc1ccccc1-n1c(C)cc(/C=N/Nc2ccc([N+](=O)[O-])cn2)c1C,inactive: -1.06%
22,C=CCn1c(SCC(=O)N2CCOCC2)nc2sc(C)c(C)c2c1=O,inactive: 16.4%

row,SMILES,growth rescue (activation)
1,Cc1ccc(CNC(=O)c2ccc3c(c2)N(Cc2ccccc2)C(=O)c2ccccc2S3(=O)=O)cc1,inactive: 34.3%
2,CN1CC(=O)N(CC(=O)NC2CCCCC2)C1=O,inactive: 16.6%
3,CCOc1ccccc1N(CC(=O)N1CCC(C)CC1)S(=O)(=O)c1ccc(C)cc1,inactive: 8.01%
4,O=C(Cn1c(=O)oc2ccccc21)Nc1nc(-c2ccc(Br)cc2)cs1,inactive: -25.5%
5,CCCCCCCN1C2=NCCCN2c2ccccc21,inactive: 4.92%
6,CC(=O)Nc1cc(O)cc(O)c1,inactive: 10.5%
7,CCOc1cc(CNC(C)(C)C)ccc1OCC(=O)Nc1cccc(C(F)(F)F)c1,inactive: -12.4%
8,COc1ccc2c(Sc3ccccc3)c(C(=O)NCCCN3CCCCC3)[nH]c2c1,inactive: 15.7%
9,CC(=O)c1ccc(S(=O)(=O)N2CCNC(=O)C2)cc1,inactive: 16.5%
10,Cc1cccc(C(=O)Nc2ccccc2NC(=O)c2cccc(C)c2)c1,inactive: 3.96%
11,COCCNC(=O)C1CCCN(Cc2ccccc2)CC1 (centres undefined),inactive: 5.59%
12,Cc1cccc(C(=O)NC2CC(C)(C)NC(C)(C)C2)c1,inactive: 8.39%
13,Cc1ccsc1/C=N/Nc1nc(=O)[nH]nc1C,inactive: -44.4%
14,CC(=O)c1cccc(NC(=O)COC(=O)[C@@H](NC(=O)OCc2ccccc2)C(C)C)c1,inactive: 26.7%
15,CC(=O)OC[C@@H]1CN(Cc2cccc(C(F)(F)F)c2)C[C@H](n2cnc3c(N4CCOCC4)ncnc32)O1,inactive: 21.4%
16,O=C(NCC1CCCN(C(=O)NCc2ccccc2)C1)c1ccc2c(c1)OCO2 (centres undefined),inactive: 8.89%
17,CC(C)c1ccccc1NC(=O)CNC(C)c1ccc(F)cc1 (centres undefined),inactive: 6.47%
18,CCOc1ccc(S(=O)(=O)N2CCCC(C(=O)NCc3ccncc3)C2)cc1C (centres undefined),inactive: 9.14%
19,COc1cc(OC)cc(C(=O)NCC(=O)OCC(=O)NC(C)(C)C)c1,inactive: 12%
20,COc1ccc2c(c1OC)C(=O)N(c1nccs1)C2,inactive: 18.9%
21,O=C(O)c1cn(-c2ccc(F)cc2)c(=O)c2ccccc12,inactive: 3.74%
22,COC(=O)c1ccc(NC(=S)NNC(=O)CC(C)C)cc1,inactive: -2.12%

row,SMILES,growth rescue (activation)
1,S=c1[nH]cc(-c2ccc(Cl)cc2)n1-c1ccccc1,inactive: -9.7%
2,CN1CCN(C(=O)c2cc3sc4ccccc4c3s2)CC1,inactive: 2.75%
3,C/C(=C\C(=O)c1ncc(C(F)(F)F)cc1Cl)N(C)C,inactive: 3.57%
4,C#CCOc1ccc(/C=C2/C(=O)N(c3cccc(C(=O)O)c3)N=C2C)cc1OC,inactive: -8.28%
5,CCCc1cc(=O)[nH]c(SCC(=O)Nc2nonc2C)n1,inactive: -16.2%
6,COc1ccc(/C=N/Nc2nc(-c3ccc(Cl)cc3)cc(C(F)(F)F)n2)c(OC)c1,inactive: 4.76%
7,COc1ccc(N(C(=O)c2snc(C(N)=O)c2N)C(C(=O)NC2CCCC2)c2ccc3ncccc3c2)cc1 (centres undefined),inactive: 0.462%
8,COCCNC(=O)C1(C)CCN(Cc2ccc(C(C)C)cc2)C1 (centres undefined),inactive: 10.2%
9,c1ccc(-c2cc3nc(NCc4cccs4)ccn3n2)cc1,inactive: 19.7%
10,COc1ccc(NC(=O)CSc2nnnn2C)cc1S(=O)(=O)N1CCCCC1,inactive: -0.951%
11,CNc1nc(-c2ccccc2)nc(-c2ccc(OC)cc2)c1C#N,inactive: -3.22%
12,COc1ccc(C(CNc2ncnc3sc(C)c(C)c23)N(C)C)cc1 (centres undefined),inactive: -26.4%
13,Cc1ccc(C(=O)OCC(=O)NCc2cccs2)c(C)c1,inactive: 14.9%
14,O=C(CSc1nc2ccccc2c(=O)n1-c1ccc(SC(F)F)cc1)Nc1ccc(N2CCOCC2)cc1,inactive: -8.81%
15,Cc1cc(=O)oc2cc(OCC(=O)N/N=C/c3ccccc3O)ccc12,inactive: 9.31%
16,Cc1cccc(C(c2c(C)nn(-c3ccccc3)c2N)c2c(C)nn(-c3ccccc3)c2N)c1,inactive: 10.2%
17,OCCCNCc1ccc(N(c2ccccc2)c2ccccc2)cc1,inactive: -18.9%
18,CC(NCC(O)COCc1ccc(Cl)cc1)c1ccccc1 (centres undefined),inactive: 7.44%
19,CCCCNC(=O)C1CCN(c2nc(C)cc(C)n2)CC1,inactive: 2.64%
20,O=C1c2c([N+](=O)[O-])cc([N+](=O)[O-])cc2S(=O)N1Cc1ccccc1 (centres undefined),inactive: -5.92%
21,O=C(NC1CCS(=O)(=O)C1)c1cccc(S(=O)(=O)N2CCCC2)c1 (centres undefined),inactive: 6.26%
22,Cc1ccc(C)c(NC(=O)CSc2n[nH]c(-c3ccccn3)n2)c1,inactive: 18.5%

row,SMILES,growth rescue (activation)
1,CC(C)CC(=O)NC(NCC1CCCO1)C(Cl)(Cl)Cl (centres undefined),inactive: -39.6%
2,CCN(CC)S(=O)(=O)c1cccc(C(=O)N/N=C/c2cccc(O)c2O)c1,inactive: -0.865%
3,CCC(c1nnnn1Cc1ccccc1)N1CCN(c2ccc(OC)cc2)CC1 (centres undefined),inactive: 0.586%
4,CCOC(=O)C1(C)CCN1C(=O)COc1ccc(C(C)(C)C)cc1 (centres undefined),inactive: 3.49%
5,O=C1SCCC1NS(=O)(=O)c1ccccc1[N+](=O)[O-] (centres undefined),inactive: 0.512%
6,CC1(C)C(=O)C2(CCCCC2)C(=O)OC1C(=O)c1ccccc1 (centres undefined),inactive: 0.663%
7,COc1cc(C2CC(=O)C3=C(C2)Nc2ncnn2C3c2cccs2)cc(OC)c1OC (centres undefined),inactive: 13.2%
8,COc1ccc(C(NC(=O)C2CCN(CCCOc3ccccc3)CC2)c2ccccn2)cc1 (centres undefined),inactive: -9.37%
9,CN1CCN(S(=O)(=O)c2ccc(N(C)Cc3ccc(C(F)(F)F)cc3)c([N+](=O)[O-])c2)CC1,inactive: 12.2%
10,COc1cc(NS(=O)(=O)c2ccc(NC(=S)NC(=O)c3ccc(F)cc3)cc2)nc(OC)n1,inactive: -0.428%
11,COc1cccc(OCC(=O)NNC(=O)CCc2ccccc2)c1,inactive: 4.68%
12,CC(C)Cc1csc(NC(=O)c2ccc(Cl)cc2)c1C(=O)O,inactive: 5.02%
13,COC(=O)[C@@H]1CCCN1C(=O)CCc1nnc(C2CCCCC2)o1,inactive: -5.23%
14,CC(C)CCN(C(=O)c1csnn1)C(C(=O)NC1CCCC1)c1ccccc1 (centres undefined),inactive: 9.64%
15,COC(CNC(=O)c1ccc2c(c1)ncn2-c1ccc(C)cc1C)OC,inactive: 12%
16,CCSc1nnc(C)c2ccccc12,inactive: 33.1%
17,COc1cc(-c2[nH]ncc2CN2CCSCC2)cc(OC)c1OC,inactive: -7.18%
18,O=C(OCC(=O)N1CCCC1)c1cnc(Cl)c(Cl)c1,inactive: -6.5%
19,COc1cccc(C(=O)N/N=c2\sc3ccccc3n2C)c1,inactive: 19%
20,O=C(CSc1ccccn1)N1CCN(C(=O)CSc2ccccn2)CC1,inactive: 18.8%
21,Cc1ccc(OCC(=O)Nc2ccc(S(=O)(=O)Nc3ccccn3)cc2)cc1,inactive: 0.375%

# — PubChem BioAssay AID1347073 (National Center for Advancing Translational Sciences (NCATS), 2019)
